In publication PMC4336329 (PLoS ONE, 2015):
The whole screen tested about 310,000 compounds, of which about 14,000 (4.5%) showed an effect of 50% or more. The effect is printed as a negative number. The list shows a part of the results.

Each molecule was assayed against human ether-à-go-go-related gene (hERG) potassium channel (human, UniProt Q12809) (assay: primary screen, population patch clamp on CHO cells stably expressing hERG).
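Note: peak tail current of the secondary pulse compared with the same well before compound.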

Sequence of human ether-à-go-go-related gene (hERG) potassium channel (Q12809 whole entry, looked up): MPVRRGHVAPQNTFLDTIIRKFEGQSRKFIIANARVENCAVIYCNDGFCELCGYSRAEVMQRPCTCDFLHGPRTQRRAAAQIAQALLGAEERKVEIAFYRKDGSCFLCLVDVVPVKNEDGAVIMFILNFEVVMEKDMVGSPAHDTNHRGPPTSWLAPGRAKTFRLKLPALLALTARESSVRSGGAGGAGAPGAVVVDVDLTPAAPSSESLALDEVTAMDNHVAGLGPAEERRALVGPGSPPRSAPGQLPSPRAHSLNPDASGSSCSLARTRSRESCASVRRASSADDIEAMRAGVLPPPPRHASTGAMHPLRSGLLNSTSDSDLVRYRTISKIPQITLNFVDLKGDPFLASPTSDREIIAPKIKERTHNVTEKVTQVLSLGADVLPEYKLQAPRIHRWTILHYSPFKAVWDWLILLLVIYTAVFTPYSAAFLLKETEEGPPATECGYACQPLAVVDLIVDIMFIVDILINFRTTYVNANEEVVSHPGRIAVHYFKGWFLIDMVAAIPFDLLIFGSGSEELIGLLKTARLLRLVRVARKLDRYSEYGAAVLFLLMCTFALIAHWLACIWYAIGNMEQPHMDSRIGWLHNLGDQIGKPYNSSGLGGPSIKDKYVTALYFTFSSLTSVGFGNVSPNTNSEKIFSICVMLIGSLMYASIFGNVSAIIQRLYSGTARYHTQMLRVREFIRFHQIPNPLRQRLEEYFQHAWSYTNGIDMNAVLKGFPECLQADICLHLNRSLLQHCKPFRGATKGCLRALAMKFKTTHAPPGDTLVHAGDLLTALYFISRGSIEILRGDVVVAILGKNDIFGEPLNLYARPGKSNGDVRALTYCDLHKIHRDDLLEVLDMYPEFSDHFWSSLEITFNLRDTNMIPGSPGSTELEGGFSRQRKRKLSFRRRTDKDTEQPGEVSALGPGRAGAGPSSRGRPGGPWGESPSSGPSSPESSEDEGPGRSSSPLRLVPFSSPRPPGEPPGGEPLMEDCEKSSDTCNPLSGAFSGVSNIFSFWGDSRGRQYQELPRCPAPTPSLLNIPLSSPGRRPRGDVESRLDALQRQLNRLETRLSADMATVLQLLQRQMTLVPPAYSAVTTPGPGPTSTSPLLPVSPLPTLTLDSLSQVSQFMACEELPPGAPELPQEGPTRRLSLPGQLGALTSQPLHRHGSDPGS

Structure (SMILES) | hERG current change (%, negative = inhibition) at 10uM [%]
Cc1cc(C)c2nc(-c3cccnc3)cc(C(=O)NC(C)c3cnn(C)c3C)c2c1 (stereo not shown) | -30.6
Oc1ccc(C2C(c3ccccc3)=NN=C(c3ccccc3F)N2O)c(O)c1 (stereo not shown) | 7.99
CC1(C(=O)NCc2ccccc2)Oc2ccccc2NC1=O (stereo not shown) | 18.8
Cc1csc(=O)n1CC(=O)OCC(=O)N(CC(C)C)c1c(N)n(Cc2ccccc2)c(=O)[nH]c1=O | -2.59
CNC(=O)c1snnc1-c1ccccc1 | 11.7
O=C(N/N=C/c1ccc(OCC(=O)N2CCCCC2)cc1)c1ccccc1O | 14.9
CCOC(=O)c1nc[nH]c1C | -1.26
CC(=O)c1ccccn1 | 18.5
CCc1ccccc1NC(=O)CSC1=C(C#N)C(c2ccc(O)c(OC)c2)C2=C(CCCC2=O)N1 (stereo not shown) | 15.8
CC(NC(=O)c1ccccc1Cl)c1ccc(-n2ccnc2)cc1 (stereo not shown) | -34.2
COc1ccccc1OCC(=O)NCCSCc1ccc(Cl)cc1 | -45
CCOC(=O)CN1C(=O)N(c2ccccc2OC)S(=O)(=O)c2ccccc21 | 14.4
Cc1ccc(S(=O)(=O)Nc2nc(-c3ccccc3)cs2)cc1 | 9.38
CCOC(=O)N1CCN(S(=O)(=O)c2ccc(C(=O)N(CCN(CC)CC)c3nc4ccc(C)cc4s3)cc2)CC1.Cl | -23.8
O=C(CN(Cc1ccco1)C(=O)c1cc(=O)[nH]c2ccccc12)Nc1ccccc1C(F)(F)F | -12
CC(Oc1ccccc1)C(=O)Nc1nnc(S(=O)(=O)Nc2ccccc2)s1 (stereo not shown) | 11.4
Cc1ccc(S(=O)(=O)N2CCN=C2SC(C)c2ccccc2)cc1 (stereo not shown) | 10.7
CC1CC(C)CN(CC(=O)Nc2ccc3c(c2)OCCO3)C1.O=C(O)C(=O)O (stereo not shown) | 2.75
O=C(CCC(=O)N1CCOc2ccccc21)NCc1cccnc1 | 12.2
CC1Cc2ccccc2N1S(=O)(=O)c1cccc(C(=O)NCCCO)c1 (stereo not shown) | -27.9
Cc1ccc(N(CC2=NCCN2)c2cccc(O)c2)cc1.Cl | -58.3
COc1cc2nc(NCC3CCCO3)n3nc(-c4cccnc4)nc3c2cc1OC (stereo not shown) | -22.6
Cl.OCCN(CCO)Cc1csc2ccccc12 | 1.95
Cc1noc(C)c1S(=O)(=O)N(CC(=O)N1CCCC1)c1ccc(C(C)C)cc1 | -20.9
O=C(C1COc2ccccc2O1)N1CCN(c2ccccc2Cl)CC1 (stereo not shown) | 1.69
CCOc1ccc(C(=O)c2cc([N+](=O)[O-])ccc2N2CCOCC2)cc1 | -20.4
O=C(COC(=O)c1cc(=O)[nH]c2ccccc12)Nc1nccs1 | 16.2
CC(=O)c1cccc(NC(=O)CN2CCN(Cc3ccccc3)CC2)c1.Cl | -10.9

Structure (SMILES) | hERG current change (%, negative = inhibition) at 10uM [%]
CC(C)C(=O)N(c1ccc2oc(=O)sc2c1)S(=O)(=O)c1ccccc1 | 30.6
O=C(NC1CCS(=O)(=O)C1)c1ccc(S(=O)(=O)N2CCCCC2)cc1 (stereo not shown) | 1.86
COc1ccc(NC(=O)c2cnn(-c3ccccc3)c2C)cc1OC | 7.69
CC(=O)CC(C)(C)NC(C)=S | -4.75
COC(=O)c1ccc(C(=O)NC2CCSc3ccccc32)cc1 (stereo not shown) | 14.9
Cc1ccc(CSc2nnc3c(n2)OC2(Nc4ccccc4-3)C(=O)Nc3ccc(F)cc32)cc1 (stereo not shown) | 6.53
CC(=O)c1ccc(NC(=O)CCNC(=O)c2ccc(Cl)cc2)cc1 | 11.5
COc1ccc(C(=S)N2CCOCC2)cc1OC(=O)c1ccc([N+](=O)[O-])cc1[N+](=O)[O-] | -52
CCC1CCCCN1CCCNC(=O)CN1C(=O)CSc2ccc(S(=O)(=O)N3CCC(C)CC3)cc21 (stereo not shown) | -9.76
CC(=O)N/C(=N\c1nc(C)cc(C)n1)Nc1ccc2ccccc2c1 | 10.8
O=C(CN1CCCc2ccccc21)Nc1ccc(F)cc1[N+](=O)[O-] | 19.2
O=[N+]([O-])/C(C(=C(Cl)Cl)N1CCN(Cc2ccccc2)CC1)=C1\NCCN1Cc1ccc(Cl)nc1 | -12.8
O=C1CC(c2ccco2)Cc2nc(Nc3ccc(F)cc3)ncc21 (stereo not shown) | -31
CCOc1cc(C(=O)NC(C)COC)cc(OCC)c1OCC (stereo not shown) | -7.82
O=c1onc(-c2cccnc2)n1-c1ccccc1F | 10.8
COc1ccc(S(=O)(=O)NCC(c2ccc(C)cc2)N2CCN(C)CC2)cc1OC (stereo not shown) | -25.6
CCOc1cc(CNC(=O)CN2C(=O)c3ccccc3S2(=O)=O)ccc1OC | -7.58
COc1ccc(C(=O)Nc2cccc(C(C)=O)c2)c(OC)c1OC | 6.8
C/C(=N\NC(=O)CC1N=C(Cc2ccccc2)NNC1=O)c1ccc(Br)cc1 (stereo not shown) | 15.1
CN1CCN(C(=O)c2ccc(OCCOc3ccccc3)cc2)CC1 | -9.69
C/C(=N\NC(=O)C1COc2ccccc2O1)c1ccc(C)o1 (stereo not shown) | -0.028
Cc1cccc(C)c1OCC(=O)N/N=C/C=C/c1ccco1 | 11.7
CC(C)NCC(=O)Nc1c2c(nc3ccccc13)CCC2.O=C(O)C(=O)O | 6.26
Cc1onc(-c2c(F)cccc2Cl)c1C(=O)N1CCc2ccccc2C1 | -15.7
O=C(c1ccco1)N(Cc1cccc([N+](=O)[O-])c1)c1ccc(Br)cc1 | -26.9
O=C(c1ccccc1)c1ccc(Cn2cc(-c3ccccc3)nn2)cc1 | -15.1
C/C(=N\NC(=O)Cc1ccc(Cl)cc1)c1ccc(F)cc1 | 10.6
